About 1,200 (2.5%) of roughly 48,000 compounds were called active. About 2% were inconclusive and are not listed.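 The calls were made as follows: active = activation of at least 60% and not above a set upper limit (about 1 call in 100 departs from these limits); inconclusive = activation of 40% to 60%, or above that upper limit; inactive = activation under 40%.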 The list shows a part of the results.
What follows are compounds tested against Probable G-protein coupled receptor 32 (Homo sapiens) (UniProt O75388) (assay: qHTS for Agonists of Human Resolvin D1 Receptor DRV1). Conditions: CHO-K1 GPR32 beta-arrestin PathHunter luminescence, 90 min; at 76.9 µM; hits give high values; zero percent set by DMSO-only wells.
UniProt O75388, sequence (O75388 whole entry, looked up): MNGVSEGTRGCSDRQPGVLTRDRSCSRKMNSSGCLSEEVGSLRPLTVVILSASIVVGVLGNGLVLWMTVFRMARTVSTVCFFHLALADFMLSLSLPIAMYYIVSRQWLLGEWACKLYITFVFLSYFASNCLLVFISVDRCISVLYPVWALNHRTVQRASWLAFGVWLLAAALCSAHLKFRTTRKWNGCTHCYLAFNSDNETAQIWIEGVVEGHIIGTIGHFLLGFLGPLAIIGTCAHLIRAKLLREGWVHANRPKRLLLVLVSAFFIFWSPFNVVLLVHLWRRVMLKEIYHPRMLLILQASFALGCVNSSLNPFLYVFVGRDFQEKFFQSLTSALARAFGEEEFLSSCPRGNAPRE
Outline: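 Engineered CHO-K1 line co-expressing GPR32-ProLink and EA-beta-arrestin. Compound treatment lasted 90 min at 37 °C. Luminescence was recorded after 1 h with substrate at ambient temperature, relative to DMSO basal wells.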
Also: 0% is about no effect.

Row | Compound | activation
1 | COc1ccc(-c2nc(C)c(CCNC(=O)c3cccs3)s2)cc1OC | inactive: 2.95%
2 | COc1ccccc1CNc1cc(C)nc2nc(-c3ccc(C)cc3)nn12 | inactive: 35.8%
3 | CC(C)(C)OC(=O)N1CCC(c2c(C(=O)N3CCN(c4ccccn4)CC3)cnn2-c2ccccc2)CC1 | inactive: -8.78%
4 | COc1ccc(CCNC(=O)c2cnn(-c3cccc(C)c3)c2C2CCN(C(=O)OC(C)(C)C)CC2)cc1OC | inactive: -15.8%
5 | CC(C)COc1ccc(C(=O)N2CCCCC2CCN2CCCCC2)cc1 (centres undefined) | inactive: 5.04%
6 | Cc1cccc(-c2nnn3c2nc(NCc2ccc4c(c2)OCO4)c2ccccc23)c1 | inactive: -4.17%
7 | COc1cccc2c1ncc1c(-c3ccc(C)cc3)nn(-c3ccc(F)cc3)c12 | inactive: 2.91%
8 | CC(=O)c1ccc(NC(=O)c2noc3c2CSc2ccccc2-3)cc1 | inactive: -6.99%
9 | CCc1cc(C(=O)Nc2sc(C)c(CC)c2C#N)no1 | inactive: -4.71%
10 | CCc1ccc(CN2CCc3nc(N4CCN(c5ccccc5F)CC4)ncc3C2)cc1 | inactive: -9.34%
11 | CCCCOc1cccc(C(=O)Nc2cc(NC(=O)c3ccco3)ccc2OC)c1 | inactive: 23.2%
12 | Cc1ccc(Cl)cc1N1CCN(C(=O)c2c(C)oc3ncnc(N4CCCCC4)c23)CC1 | inactive: -3.39%
13 | COc1cccc(NC(=O)CCc2c(C)nc3nc(CNC(=O)c4cccc(F)c4)nn3c2C)c1 | inactive: -5.81%
14 | Cc1ccc(CNC(=O)c2c(O)nc3cc(C)ccn3c2=O)cc1 | inactive: 2.52%
15 | CCc1ccc(C2=C(C)C(N3CCC(C(=O)NCc4ccccc4)CC3)=NS2(=O)=O)cc1 | active: 65.1%
16 | Cc1ccc2c(c1)-c1c(cnc3cc(-c4ccc(F)cc4)nn13)CO2 | inactive: 3.11%
17 | COc1ccc(-c2cnc(C)o2)cc1S(=O)(=O)Nc1c(C)cc(C)cc1C | inactive: -2.49%
18 | CC(c1ccccc1)n1cc2c(c1-c1ccccc1Br)c(=O)n(C)c(=O)n2C (centres undefined) | inactive: -24%
19 | C#CCOc1ccc(-c2nnc(Nc3ccc(NC(C)=O)cc3)c3ccccc23)cc1 | inactive: -10.3%
20 | Cc1oc2ccc(O)c(CN3CCCC3)c2c1C(=O)Nc1ccc(C(C)C)cc1 | active: 118%
21 | N[C@@H](Cc1ccc(F)cc1)C(=O)O | inactive: 11.4%

Row | Compound | activation
22 | Cc1ccccc1Nc1nn2c(=O)c3ccc(C(=O)NCCc4ccc(Cl)cc4)cc3nc2s1 | inactive: 11.7%
23 | Cc1ccc2nc(Cl)c3cc(C(=O)N4CCCCC4C)sc3c2c1 (centres undefined) | inactive: 0.366%
24 | Cc1ccccc1CNC(=O)c1oc2c(c1C)-c1[nH]ncc1CC2 | inactive: -9.56%
25 | O=P(O)(O)C(O)(Cc1cccnc1)P(=O)(O)O | inactive: -4.69%
26 | CC(C)C1C(=O)Nc2ccc(S(=O)(=O)NCCc3ccc(Cl)cc3)cc21 (centres undefined) | active: 87.3%
27 | COc1ccc(Cl)cc1NC(=O)CN1C(=O)C(C)(C)c2cc(S(=O)(=O)N3CCCCC3)ccc21 | inactive: -2.83%
28 | Cc1cc(N2CCN(C)CC2)nc2ccc(NC(=O)Nc3cccc(Cl)c3)cc12 | active: 93.5%
29 | Cc1cccc(-n2ncc(C(=O)N3CCN(c4ccc(C)cc4C)CC3)c2C2CCN(C(=O)OC(C)(C)C)CC2)c1 | inactive: -15%
30 | CCOc1ccc(Nc2c(S(=O)(=O)c3ccc(Cl)cc3)cnc3ccc(OCC)cc23)cc1 | inactive: -44%
31 | CCOc1ccc(C2c3c(oc4ccc(C)cc4c3=O)C(=O)N2CCCN2CCOCC2)cc1 (centres undefined) | inactive: -11%
32 | CCN1c2ccccc2-c2nc(SCC(=O)NCc3ccc(Cl)cc3)ncc2S1(=O)=O | inactive: 14.4%
33 | Cc1ccsc1CN(C(=O)c1oc2ccc(Br)cc2c1C)C1CCS(=O)(=O)C1 (centres undefined) | inactive: -26.5%
34 | Cc1cn(C)c(CC(=O)NCc2ccccc2)c1C(=O)O | inactive: 2.35%
35 | Cc1c(C)n(Cc2ccc(F)cc2)c2ccc(C(=O)NCc3ccco3)cc12 | inactive: -21.3%
36 | CCOc1ccc(CCNC(=O)Cn2nnc(-c3ccccc3Cl)n2)cc1OCC | inactive: 45%
37 | O=C(CC1C(=O)N(c2ccccc2)C(=O)N1CCc1cccs1)Nc1ccc(F)cc1 (centres undefined) | inactive: -0.708%
38 | O=C(CCCn1c(=O)c2cccn2c2cccnc21)NCc1ccccc1Br | inactive: -20.2%
39 | CSc1ncc(C(=O)N2CCN(c3cccc(Cl)c3)CC2)c(C)n1 | inactive: 16.2%
40 | O=C(CSc1ncc(-c2ccccc2)[nH]1)Nc1ccc(Cl)cc1 | inactive: 38.3%
41 | Cc1ccc(CNc2nc(-c3ccco3)nn2S(=O)(=O)c2ccc3ccccc3c2)cc1 | inactive: -15.2%
42 | O=C(NCCN1CCN(c2cccc(Cl)c2)CC1)Nc1ccccc1C(F)(F)F | inactive: -18.8%

Row | Compound | activation
43 | Cc1ccc(S(=O)(=O)Nc2cc3c(cc2NCc2ccccc2)n(C)c(=O)n3C)cc1 | inactive: 18.9%
44 | COc1ccc2c(c1)CC(C(=O)NCCCN1CCN(c3cccc(Cl)c3)CC1)CO2 (centres undefined) | inactive: -13%
45 | CCOC(=O)c1sc2ccccc2c1S(=O)(=O)N1CCN(c2cccc(C)c2)C(C)C1 (centres undefined) | inactive: -25.4%
46 | O=C(Cn1c(=O)nc(-c2ccccc2)c2cc(Cl)ccc21)N1CCN(c2ccccc2F)CC1 | inactive: 3.56%
47 | COc1ccc(-c2cc3nc(C)c(CCC(=O)N4CCN(c5ccc(F)cc5)CC4)c(C)n3n2)c(OC)c1 | inactive: -0.0624%
48 | Cc1ccc(Nc2nc3ccccc3c3nnc(C)n23)c(C)c1 | inactive: -26.5%
49 | CCCCC#Cc1nc(NC)c2ncn([C@@H]3O[C@H](CO)[C@@H](O)[C@H]3O)c2n1 | inactive: -0.005%
50 | CC(=O)c1cccc(Nc2cc(C)nc3nc(Cc4ccccc4)nn23)c1 | inactive: 8.23%
51 | CCCCN(CCCC)CCNC(=O)CN1C(=O)CSc2ccc(S(=O)(=O)N3CCOCC3)cc21 | inactive: -9.55%
52 | COc1ccc(NC(=O)c2c(C)oc3ccc(O)c(CN4CCN(Cc5ccccc5)CC4)c23)cc1Cl | inactive: -14.5%
53 | Cc1oc2ncn(C)c(=O)c2c1C(=O)NCCCN1CCCCC1C (centres undefined) | inactive: -6.09%
54 | CCCOc1ccc(CNC(=O)c2ccc(C)c(-n3c(C)nc4cccnc43)c2)cc1 | inactive: -6.39%
55 | COc1cccc(CNC(=O)c2ccc3c(=O)n4nc(Nc5ccccc5)sc4nc3c2)c1 | inactive: -16.6%
56 | CCOC(=O)c1c(C)n(-c2ccccc2)c2ccc(OC(=O)c3cccc(C)c3)cc12 | inactive: 9.71%
57 | CC(=O)c1cc(-c2ccc(F)cc2)n(CC(=O)NC2CCC(C)CC2)c1C (centres undefined) | inactive: -17.3%
58 | CC(=O)c1cccc(NC(=O)Nc2nnc(N3CCCC3)s2)c1 | inactive: 4.95%
59 | COc1ccc2cc(-c3nnc(Nc4ccccc4)s3)c(=O)oc2c1 | inactive: -3.94%
60 | CCN(CC)C(=O)N1CCN(C)CC1 | inactive: 4.69%
61 | COc1ccc(-n2nc(C(=O)Nc3ccc(Cl)cn3)c3c4ccccc4n(C)c3c2=O)cc1 | inactive: 5.8%
62 | O=C(Nc1cccc(C(F)(F)F)c1)N1CC2CCCN2c2ccccc21 (centres undefined) | inactive: -6.63%
63 | Cc1ccccc1C(=O)OCc1cc(=O)n2nc(C(C)C)sc2n1 | inactive: -3.12%

Row | Compound | activation
64 | COc1cc(OC)c(N(C)C(=O)c2cn(C3CCCC3)c(=O)c3c2c2ccccc2n3C)cc1Cl | inactive: -35.6%
65 | Nc1ccc(N=Nc2ccccc2)c(N)n1 | inactive: -43.9%
66 | COc1ccc(-n2nc(C(=O)O)c(=O)n(C)c2=O)cc1 | inactive: -7%
67 | Cc1ccc(N2CCN(C(=O)c3cnn(-c4ccc(F)cc4F)c3C3CCN(C(=O)OC(C)(C)C)CC3)CC2)c(C)c1 | inactive: -28.7%
68 | CN(Cc1ccccc1)S(=O)(=O)c1ccc2[nH]c3c(c2c1)CCCCC3 | inactive: 40.2%
69 | CCN1CCN(C(c2ccc(C)cc2)c2c(O)cc(C)n(Cc3ccco3)c2=O)CC1 (centres undefined) | inactive: -16.3%
70 | O=C(O)c1cc(O)c(O)c(O)c1 | inactive: 36%
71 | CCOC(=O)N1CCC(NC(=O)c2cnn(-c3cccc(F)c3)c2-n2cccc2)CC1 | inactive: -7.83%
72 | Cc1c(Cl)cccc1NC(=O)C1CCCN(c2ncnc3onc(C)c23)C1 (centres undefined) | inactive: 2.43%
73 | O=C(NCc1ccccc1Cl)c1ccc2c(c1)N(Cc1ccccc1)C(=O)CS2 | inactive: -16.4%
74 | Cc1ccc(Cl)cc1N1CCN(C(=O)c2ccc3c(c2)CCN3S(=O)(=O)c2ccccc2)CC1 | inactive: -21.8%
75 | Cc1ccc(-c2nnc(Nc3cccc(O)c3)c3ccccc23)cc1S(=O)(=O)NCC1CCCO1 (centres undefined) | inactive: -4.38%
76 | CC1CCN(S(=O)(=O)c2ccc3c(c2)c(=O)c(C(=O)NC(C)c2ccccc2)cn3C)CC1 (centres undefined) | inactive: -20.4%
77 | CN(CC(=O)Nc1ccccc1F)S(=O)(=O)c1ccc2c(c1)c(=O)n(C)c(=O)n2C | inactive: 15.3%
78 | COc1ccc(CCC(=O)NCc2nc3cccnc3n2Cc2ccc(F)cc2)cc1 | inactive: -13.8%
79 | O=C(NCCc1ccccc1)c1ccc2c(c1)N(Cc1ccccc1)C(=O)c1ccccc1S2(=O)=O | active: 92.4%
80 | COc1ccc(CNC(=O)c2cc(=O)[nH]c3ccc(S(=O)(=O)N4CCCC4)cc23)c(OC)c1 | inactive: -4.53%
81 | O=C(NCCc1ccccc1)C1CCN(Cc2cc3ccccc3n2Cc2cccc(Cl)c2)CC1 | inactive: -67.8%
82 | CC(=O)c1cccc(NC(=O)C(CC(C)C)NS(=O)(=O)c2ccc3c(c2)CCN3C(C)=O)c1 (centres undefined) | inactive: -4.88%
83 | CCOC(=O)CN(Cc1ccccc1)C(C(=O)NC1CCCCC1)c1ccc(OC)cc1 (centres undefined) | inactive: -14.6%
84 | COc1cccc(Nc2sc(C(=O)c3ccc(Cl)cc3)c(N)c2C(=O)NCc2ccc(C)cc2)c1 | inactive: -7.39%
